Where a chain is given by its changes, count along the chain named. Like-named read-outs stand apart in the source and are kept apart here. Blank lines part the entries; values can stand above or below the binder they belong to.
What was measured:
Assay in all cases: cell-based or functional assay
[1] = target: T1, human VEGF-A (human, UniProt P15692-4 27-191)
T1 sequence (looked up): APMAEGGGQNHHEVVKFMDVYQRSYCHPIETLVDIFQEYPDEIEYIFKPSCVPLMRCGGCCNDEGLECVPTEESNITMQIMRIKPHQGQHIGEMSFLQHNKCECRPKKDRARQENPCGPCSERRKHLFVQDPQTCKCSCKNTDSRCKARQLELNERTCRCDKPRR

[2] = target: T1, human VEGF-A; remark: listed apart in the source
[3] = target: T1, human VEGF-A; remark: listed apart in the source
[4] = target: T2, human TrkB receptor (human, UniProt Q16620 32-822)
[5] = target: T2, human TrkB receptor; remark: listed apart in the source
[6] = target: T1, human VEGF-A; remark: listed apart in the source
[7] = target: T1, human VEGF-A; remark: listed apart in the source
[8] = target: T1, human VEGF-A; remark: listed apart in the source
[9] = target: T1, human VEGF-A; remark: listed apart in the source
[10] = target: T2, human TrkB receptor; remark: listed apart in the source

T2 sequence (Q16620 32-822): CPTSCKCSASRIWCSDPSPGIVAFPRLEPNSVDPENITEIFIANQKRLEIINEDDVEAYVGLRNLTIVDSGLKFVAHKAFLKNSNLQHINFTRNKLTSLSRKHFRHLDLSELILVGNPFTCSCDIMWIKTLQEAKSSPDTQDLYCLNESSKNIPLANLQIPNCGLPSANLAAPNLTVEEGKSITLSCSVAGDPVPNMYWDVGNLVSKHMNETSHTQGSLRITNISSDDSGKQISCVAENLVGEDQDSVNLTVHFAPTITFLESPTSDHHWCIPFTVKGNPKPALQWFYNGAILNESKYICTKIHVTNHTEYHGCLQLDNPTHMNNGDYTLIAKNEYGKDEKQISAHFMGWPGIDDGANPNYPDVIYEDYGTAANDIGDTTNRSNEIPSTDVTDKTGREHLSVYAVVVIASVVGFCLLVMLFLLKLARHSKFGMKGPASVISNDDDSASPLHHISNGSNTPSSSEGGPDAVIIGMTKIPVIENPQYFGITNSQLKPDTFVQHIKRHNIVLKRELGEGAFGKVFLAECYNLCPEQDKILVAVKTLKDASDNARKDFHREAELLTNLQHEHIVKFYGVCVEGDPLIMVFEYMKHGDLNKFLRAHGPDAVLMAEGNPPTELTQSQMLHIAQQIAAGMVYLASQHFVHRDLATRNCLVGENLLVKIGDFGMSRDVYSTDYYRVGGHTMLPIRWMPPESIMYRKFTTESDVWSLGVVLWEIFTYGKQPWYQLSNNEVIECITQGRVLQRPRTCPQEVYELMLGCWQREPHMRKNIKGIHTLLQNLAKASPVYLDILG

B1: TPP-14940 (bispecific antibody, human IgG1, kappa)
heavy: EVQLVESGGGLVQPGGSLRLSCAASGYDFTHYGMNWVRQAPGKGLEWVGWINTYTGEPTYAADFKRRFTFSLDTSKSTAYLQMNSLRAEDTAVYYCAKYPYYYGTSHWYFDVWGQGTLVTVSSASTKGPSVFPLAPSSKSTSGGTAALGCLVKDYFPEPVTVSWNSGALTSGVHTFPAVLQSSGLYSLSSVVTVPSSSLGTQTYICNVNHKPSNTKVDKRV[in this place human IgG1 Fc with changes]GGSEGKSSGSGSESKSTGGSQVQLVQSGAEVKKPGASVKVSCKASGYTFTNYDIIWVRQAPGQGLEWMGYINPYNDGTKYNEKFKGRVTMTRDTSTSTVYMELSSLRSEDTAVYYCARLLKYRRFRYYAIDYWGQGTTVTVSSGGSEGKSSGSGSESKSTGGSDIQMTQSPSSLSASVGDRVTITCRTSENVYSNLAWYQQKPGKAPKLLIYAASNLQSGVPSRFSGSGSGTDYTFTISSLQPEDIATYYCQHFWGSPFTFGQGTKLEIK
light: DIQLTQSPSSLSASVGDRVTITCSASQDISNYLNWYQQKPGKAPKVLIYFTSSLHSGVPSRFSGSGSGTDFTLTISSLQPEDFATYYCQQYSTVPWTFGQGTKVEIKRTVAAPSVFIFPPSDEQLKSGTASVVCLLNNFYPREAKVQWKVDNALQSGNSQESVTEQDSKDSTYSLSSTLTLSKADYEKHKVYACEVTHQGLSSPVTKSFNRGEC
concentration for full inhibition of VEGF-induced HRMEC proliferation [1]: 0.25 nM
fold IC50 against Ranibizumab scFv molecules or TPP-11736 [1]: 10 fold
Bottom plateau (ERK1/2 phosphorylation, counts) [2]: 438 counts
Bottom plateau (Src phosphorylation, counts) [2]: 4770 counts
IC50 (ERK1/2 phosphorylation) [2]: 0.802 nM
IC50 (Src phosphorylation) [2]: 0.276 nM
Bottom plateau (ERK1/2 phosphorylation, counts) [3]: 438 counts
Bottom plateau (Src phosphorylation, counts) [3]: 4770 counts
IC50 (ERK1/2 phosphorylation) [3]: 0.802 nM
IC50 (Src phosphorylation) [3]: 0.276 nM
EC50 (pERK) [4]: 0.475 nM
EC50 (pTrkB) [4]: 3.21 nM

B2: TPP-22214 (bispecific antibody, human IgG1, kappa)
heavy: QVQLVESGGGLVQPGGSLRLSCAASGYDFTHYGMNWVRQAPGKGLEWVGWINTYTGEPTYAADFKRRFTFSLDTSKSTAYLQMNSLRAEDTAVYYCAKYPYYYGTSHWYFDVWGQGTLVTVSSASTKGPSVFPLAPSSKSTSGGTAALGCLVKDYFPEPVTVSWNSGALTSGVHTFPAVLQSSGLYSLSSVVTVPSSSLGTQTYICNVNHKPSNTKVDKRV[in this place human IgG1 Fc with changes]GGGGSGGGGSDIQMTQSPSSLSASVGDRVTITCRTSENVYSNLAWYQQKPGKAPKLLIYAASNLQSGVPSRFSGSGSGTDYTFTISSLQPEDIATYYCQHFWGSPFTFGCGTKLEIKGGSEGKSSGSGSESKSTGGSQVQLVQSGAEVKKPGASVKVSCKASGYTFTNYDIIWVRQAPGQCLEWMGYINPYNDGTKYNEKFKGRVTMTRDTSTSTVYMELSSLRSEDTAVYYCARLLKYRRFRYYAIDYWGQGTTVTVSS
light: B1 light with D70G
concentration for full inhibition of VEGF-induced HRMEC proliferation [1]: 0.25 nM
TrkB-phosphorylation efficacy (AlphaLISA counts) [5]: 5100 AlphaLISA counts
TrkB-phosphorylation efficacy relative to parental clone without CC bridge (%) [5]: 121%
TrkB-phosphorylation potency (EC50, nM) [5]: 2.18 nM
ERK1/2 phosphorylation: IC50 [6]: 0.415 nM
ERK1/2 phosphorylation: LogIC50 [6]: -9.38
HRMEC proliferation: IC50 (pM) [7]: 88.7 pM
HRMEC proliferation: LogIC50 [7]: -10.1
p38-MAPK phosphorylation (T180/Y182): IC50 [8]: 0.472 nM
p38-MAPK phosphorylation (T180/Y182): LogIC50 [8]: -9.33
Src phosphorylation (Y419): IC50 [9]: 0.426 nM
Src phosphorylation (Y419): LogIC50 [9]: -9.03

B3: TPP-14941 (bispecific antibody, human IgG1, kappa)
heavy: EVQLVESGGGLVQPGGSLRLSCAASGYDFTHYGMNWVRQAPGKGLEWVGWINTYTGEPTYAADFKRRFTFSLDTSKSTAYLQMNSLRAEDTAVYYCAKYPYYYGTSHWYFDVWGQGTLVTVSSASTKGPSVFPLAPSSKSTSGGTAALGCLVKDYFPEPVTVSWNSGALTSGVHTFPAVLQSSGLYSLSSVVTVPSSSLGTQTYICNVNHKPSNTKVDKRV[in this place human IgG1 Fc with changes]GGSEGKSSGSGSESKSTGGSDIQMTQSPSSLSASVGDRVTITCRTSENVYSNLAWYQQKPGKAPKLLIYAASNLQSGVPSRFSGSGSGTDYTFTISSLQPEDIATYYCQHFWGSPFTFGQGTKLEIKGGSEGKSSGSGSESKSTGGSQVQLVQSGAEVKKPGASVKVSCKASGYTFTNYDIIWVRQAPGQGLEWMGYINPYNDGTKYNEKFKGRVTMTRDTSTSTVYMELSSLRSEDTAVYYCARLLKYRRFRYYAIDYWGQGTTVTVSS
light: B1 light
concentration for full inhibition of VEGF-induced HRMEC proliferation [1]: 0.25 nM
fold IC50 against Ranibizumab scFv molecules or TPP-11736 [1]: 10 fold
Bottom plateau (ERK1/2 phosphorylation, counts) [2]: 1150 counts
Bottom plateau (Src phosphorylation, counts) [2]: 4370 counts
IC50 (ERK1/2 phosphorylation) [2]: 0.43 nM
IC50 (Src phosphorylation) [2]: 0.393 nM
Bottom plateau (ERK1/2 phosphorylation, counts) [3]: 1150 counts
Bottom plateau (Src phosphorylation, counts) [3]: 4370 counts
IC50 (ERK1/2 phosphorylation) [3]: 0.43 nM
IC50 (Src phosphorylation) [3]: 0.393 nM
EC50 (pERK) [10]: 1.29 nM
EC50 (pTrkB) [10]: 6.28 nM

Now from value to binder:

EC50 (pERK) [10]: 2.05 nM
EC50 (pTrkB) [10]: 7.83 nM
B4: TPP-19988 (bispecific antibody, human IgG1, kappa)
heavy: EVQLVESGGGLVQPGGSLRLSCAASGYDFTHYGMNWVRQAPGKGLEWVGWINTYTGEPTYAADFKRRFTFSLDTSKSTAYLQMNSLRAEDTAVYYCAKYPYYYGTSHWYFDVWGQGTLVTVSSASTKGPSVFPLAPSSKSTSGGTAALGCLVKDYFPEPVTVSWNSGALTSGVHTFPAVLQSSGLYSLSSVVTVPSSSLGTQTYICNVNHKPSNTKVDKRV[in this place human IgG1 Fc with changes]GGGGSGGGGSDIQMTQSPSSLSASVGDRVTITCRTSENVYSNLAWYQQKPGKAPKLLIYAASNLQSGVPSRFSGSGSGTDYTFTISSLQPEDIATYYCQHFWGSPFTFGQGTKLEIKGGSEGKSSGSGSESKSTGGSQVQLVQSGAEVKKPGASVKVSCKASGYTFTNYDIIWVRQAPGQGLEWMGYINPYNDGTKYNEKFKGRVTMTRDTSTSTVYMELSSLRSEDTAVYYCARLLKYRRFRYYAIDYWGQGTTVTVSS
light: B1 light

EC50 (pERK) [10]: 1.77 nM
EC50 (pTrkB) [10]: 7.37 nM
B5: TPP-19989 (bispecific antibody, human IgG1, kappa)
heavy: EVQLVESGGGLVQPGGSLRLSCAASGYDFTHYGMNWVRQAPGKGLEWVGWINTYTGEPTYAADFKRRFTFSLDTSKSTAYLQMNSLRAEDTAVYYCAKYPYYYGTSHWYFDVWGQGTLVTVSSASTKGPSVFPLAPSSKSTSGGTAALGCLVKDYFPEPVTVSWNSGALTSGVHTFPAVLQSSGLYSLSSVVTVPSSSLGTQTYICNVNHKPSNTKVDKRV[in this place human IgG1 Fc with changes]GGGGSGGGGSGGGGSGGGGSDIQMTQSPSSLSASVGDRVTITCRTSENVYSNLAWYQQKPGKAPKLLIYAASNLQSGVPSRFSGSGSGTDYTFTISSLQPEDIATYYCQHFWGSPFTFGQGTKLEIKGGSEGKSSGSGSESKSTGGSQVQLVQSGAEVKKPGASVKVSCKASGYTFTNYDIIWVRQAPGQGLEWMGYINPYNDGTKYNEKFKGRVTMTRDTSTSTVYMELSSLRSEDTAVYYCARLLKYRRFRYYAIDYWGQGTTVTVSS
light: B1 light

— US20250051460A1 (Boehringer Ingelheim, published 2025)
